# Data taken from the supplement of paper PMC11417369.
# This is one part of the list.
# Tested on: PfSIP2 AP2 domain 1 (GST-tagged)
# Assay: gcPBM binding intensity (ln(normalized median fluorescence intensity)); higher = stronger DNA binding
# Outline: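 Each value is the highest Masliner-normalised natural-log median intensity across replicate spots of either orientation of a probe. The probes were primer-extended double-stranded 36-bp intergenic genomic sequences on an Agilent 4 × 180k array, alongside negative controls, exposed for 1 h to GST-tagged P. falciparum DNA-binding domains expressed in E. coli. Bound protein was picked up with Alexa488 anti-GST antibody and scanned at 488 nm.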
row,Sequence,gcPBM binding intensity (ln)
1,CATACAGATGGACACACACACACACCCACAGACAAA [CACACA_site4431],7.23
2,TTTTTTTTTTGATGCACACACCTGAACGAGTTAATA [CACACA_site4329],7.78
3,TCGGGAGGGGGGAAGCGTACATATATAAAATTATTA [XGTACX_site4683],9.36
4,TATAACAAGTTATAAAGTACAAATGTTGAATTTTAT [XGTACX_site4673],6.85
5,TAAAAATTAATATAAACACACAAAAATTAATAAATA [CACACA_site381],6.85
6,TATAGATACAGATACACACACACACCGACATATATA [CACACA_site5832],6.99
7,GAATGTATATTCATGTATTTATTATTATTATTATTA [XGTACX_negctrl_site156],7.47
8,ATATGGCTAAAAGTTGCACACACACTAATAAAAAAA [CACACA_site9082],7.73
9,TATGTATTTATATTAACACACAAAAAAAAAAAAAAA [CACACA_site5070],7.05
10,ATTATTTTACTAAAAGATATTCCTTTTTTTTGTACT [CACACA_negctrl_site998],6.84
11,ATATGCCTAATAAAATGTACGTTTGTTTTATTTATT [XGTACX_site3833],7.02
12,ATATATATATTTTGGTAGCACCTCCTTTTTTTTTTT,8.73
13,ACAGTATCTGGTAGCTGTACGAGTCGTAGAGTGCAG [XGTACX_site2015],8.62
14,GGTAAGTACGACTTGACACACATACCCATATATATA [CACACA_site4837],7.36
15,GCGAAATATTATTATAGTATACAAATACTTCTATGA [CACACA_negctrl_site197],6.76
16,GGTGTTAAAAAATACACACACAAAAAAAAAAAAAAA [CACACA_site138],7.04
17,TTTTTTTAATTTGGTTGTACTTAAAAAAAAAACAGA [XGTACX_site5788],7.2
18,TACCTAGGATTAAAGTGTCCACATAATTTAAATAAT [XGTACX_site6736],6.96
19,TTCTTCTGTTTTATTACACACCATTTTGTGGATACA [CACACA_site5181],7.32
20,TATATAAATAGACACACACACATATAAATATAAATA [CACACA_site6503],7.02
21,TTTTTTATTATATAATTGTATATAAAATTATAATTT [GTGCAC_negctrl_site733],6.9
22,TAACTTGAATGGATATGTACATATATATATATATAT [XGTACX_site5990],9.43
23,ATTCATCTATTTTGTAGTACTAAATATATATCTACT [XGTACX_site8790],6.96

row,Sequence,gcPBM binding intensity (ln)
1,AATAAACATATATACACACACAAAAAAAAAAACATA [CACACA_site424],7.05
2,TAGATGTATGTACATACACACATATATAAATAAATA [CACACA_site1788],7.11
3,ATATCCTTAAAAGATACACACATATGAATATTTTGT [CACACA_site3847],7
4,TTTATACTTGTAAATGCACACATAAGATGCGACTAA [CACACA_site8662],7.1
5,GTTTGTAAATATTTTACACACATATATATATATATA [CACACA_site1075],9.2
6,TTGGGGTATCTTCCTATGCACACTTGTTATGTACTA [CACACA_site831],7.36
7,ATTATAGACACGCGCACACACAACAAAAAAAAAAAA [CACACA_site9180],7.47
8,TTGATTACTAGAAATGCACACACTGATAAAATAAGG [CACACA_site4134],8.35
9,ATACTTTTAAATTGATGTACTTTATTTATAAGGTGA [XGTACX_site6746],7.03
10,TTGCTCACAAGAAGCACACAAAAAAAGAAAAAAAAA [CACACA_site4047],6.83
11,TATAAAACGGATGAACAACAAATCATATGGCACAAA [TGCATGCA_negctrl_site608],7.23
12,TTCACAAAATATTATTGTACATTAAAATATTTATAT [XGTACX_site2535],6.95
13,TACATGATATATCACACACACATATAAATATATATA [CACACA_site2831],7.19
14,GAAAATTTCTTATTTTGTACACACAATAAATATTCA [XGTACX_site3267],6.99
15,GTTTTTTTATTTCATCGTACAAAAAAGAAGGCTTTA [XGTACX_site5291],7.16
16,TTATATATTTATTTATGTACATATTTTTTTATTATA [XGTACX_site6115],7.22
17,TAAATATGTATTCATACATGCACATATATATATATA [TGCATGCA_site584],9.63
18,TAAAAAATAAAAAAAGCACACACATATATATATATA [CACACA_site8567],9.41
19,AAAATAAGAAATTGAAAAATTGAAAACAAAATTAAA [CACACA_negctrl_site1285],6.65
20,ACTACTCCATTAAGTAGTACACAAAAAAAAAAAATA [XGTACX_site7031],7
21,TTACAAATGTTTTACACACACATAATTGTATCAATT [CACACA_site6147],6.78
22,TAATAAAACATATATACACACATTATAAATACATAT [CACACA_site5014],7.02
23,TATAAATAAAAACACACACACATATATATATATATA [CACACA_site2319],9.4

row,Sequence,gcPBM binding intensity (ln)
1,CCATTTTAAATATGCACACAGATGCACTAACCCATT [CACACA_site1883],10.7
2,TATTTTTTTTTTTAATGTACAAACAAATTATGTTGG [XGTACX_site2873],6.84
3,ATTTTTTTTATGAGGTGTACTCATATAATAACTACA [XGTACX_site5074],7.67
4,TTTTCTAAAGTAAGTTAAGATATGCAAAAAAAAGAA [GTGCAC_negctrl_site242],7.84
5,TATAAAAGGTAAGAGTGTACAAGTAAAAAATTTTTA [XGTACX_site771],6.8
6,AATAAAAATTGGTAGGCACACATGGAACTATTAAAA [CACACA_site1257],6.97
7,ATGAACTATATTAAATCACACATTATCATTTTATAT [CACACA_site4989],7.12
8,TATCCCTTAGAATACACACCCATATGAGCGTGAACT [CACACA_site2951],6.95
9,TCGTATATGGATTTTGCACACAATTATAATTTAAAT [CACACA_site868],7.64
10,TATATATTTTAAAATAGTACATATTATATAACCCAT [XGTACX_site2194],7.23
11,ATATATATATATATATGTACACATTAATGTTTTTTT [XGTACX_site167],10
12,TTATTTTTTATTATGTGTACATAACATCGCGATACA [XGTACX_site4359],7.13
13,AAAACTTGTCAGAATGGACACACGAATTAAAGGCCT [CACACA_site1215],6.51
14,CAACATTCGTATATCACACATTTGCATGTTGTCAAT [CACACA_site4470],6.83
15,GATTTAGTTATTTAAACATGCAATTTATATAGAATT [TGCATGCA_site47],7.06
16,TATTTATACATACATACACACATATAGATTTATATT [CACACA_site7851],7.09
17,TATGTCAAATATATATGTACACAAATATACTATTAA [XGTACX_site2643],7.08
18,AATATATATATTAGAGTGCACATAATTATTTGCTAA,10
19,ATAATCACAAATAATTGTACATTTTGTTATATATAT [XGTACX_site7704],7.5
20,TGATATATATATATATATATAACACACGCAAAAAAA [TGCATGCA_negctrl_site240],7.51
21,AAAAATTTCATATTCACACACAAAAAAAAAAAATAT [CACACA_site1592],7
22,TTTTTAATTTATTGTGTGCACACAACTATGAGTTTT,8.08
23,ATATGATATATATTCGGTACACATATATATAAAGAG [XGTACX_site430],7.38

row,Sequence,gcPBM binding intensity (ln)
1,ATTTAAATAATATTCACACACAAAATTATATTTTAA [CACACA_site219],6.99
2,AAGTTTTCTTAAAATTGTACTTTTCAAAAATAATCT [XGTACX_site277],6.65
3,ATTATTATATATGTATGTACTTATATAATATATATA [XGTACX_site5198],7.5
4,TATATATTGTTATATACACACATGTATTTAAAAAAT [CACACA_site5737],6.91
5,TTAACAAAACATAAGGTGCTTAAAATTTTATATCAC [GTGCAC_site9839],7.96
6,TCTGTTAAACAAAAAAGTACTAAAATAATGTAAAAT [XGTACX_site6826],7.19
7,TACCTATATAGACACACACACATATATTTATTTATA [CACACA_site6728],7.27
8,ATATGTACAAGTGTTTATGCTGAACGGAAATCCTGT [CACACA_negctrl_site1372],6.9
9,TTATATGGATATACAGTGCATATATACATATAAGTG,8.77
10,AATATATATACTATAACACACATACACCCAAAAAAA [CACACA_site4453],7.15
11,CATACCTTTTAATGTACACACATTTCTTTTTTGTTA [CACACA_site892],7.23
12,AAAAAAAAAAGAAACACACACATATATATATAGAAT [CACACA_site1777],7.03
13,ATGTATTAAAATTTATGTACTTATATATAAATATAT [XGTACX_site1025],7.14
14,TATATGTATTTGTATACACACAAATGTATATATTTA [CACACA_site1265],6.78
15,TATAAACATAATATTTAACACACATGAAGATGTATA [CACACA_site8252],6.9
16,TACATATATTATACATGTACACATTTATACATATCG [XGTACX_site2866],7.18
17,ATATGATCATACTGTGCATGTTAATGCAAATTTTAT [TGCATGCA_site984],7.44
18,TTTTTTTTTATATAAAAAAAAATTTTTATTATTTTA [GTGCAC_negctrl_site347],6.5
19,CGCACAGACGGACACACACACACATATATATATATA [CACACA_site5249],9.48
20,ATAATTGTCCATTTTTTCTTTTTTTTTTTCTTTTTA [CACACA_negctrl_site928],6.65
